From patent US20250163048A1 (Tango Therapeutics, Inc., priority 2022, published 2025) come the findings set out here.

Where two headings read alike, the source gives them in different places.

In one test the test system is MTAP-deleted cell line. As to the kind of experiment: viability assay for the MTAP-deleted cell line. The class given is cell-based. The following applies: Homo sapiens, HAP1, viability assay.
Test [1] relates to HAP1 MTAP-intact cell line. As to the kind of experiment: SDMA in-cell western assay, HAP1 MTAP-intact. To be noted: Homo sapiens.
For test [2], the system named is HAP1 MTAP-deleted cell line. As to the kind of experiment: SDMA in-cell western assay, HAP1 MTAP-deleted. The following applies: for IC50 / IC90: Homo sapiens; for Hap1 MTAP intact/deleted ratio: IC50 ratio between HAP1 MTAP-intact and HAP1 MTAP-deleted cell line.
Setting [3] is: HAP1, read-out: Hap1 MTAP intact IC50, SDMA in-cell western, HAP1 MTAP-intact cell line.
Where [4] appears, read: HAP1, read-out: Hap1 MTAP deleted IC50, SDMA in-cell western, HAP1 MTAP-deleted cell line.
Where [5] appears, read: HAP1, read-out: Hap1 MTAP deleted IC90, SDMA in-cell western, HAP1 MTAP-deleted cell line.
Setting [6] is: HAP1, read-out: Hap1 MTAP intact IC50, SDMA in-cell western assay, HAP1 MTAP-intact cell line.
Setting [7] is: HAP1, read-out: Hap1 MTAP deleted IC50, SDMA in-cell western assay, HAP1 MTAP-deleted cell line.
[8] abbreviates: HAP1, read-out: Hap1 MTAP deleted IC90, SDMA in-cell western assay, HAP1 MTAP-deleted cell line.

Take `C[C@H]1CC[C@H](c2ccc3sc(CCN(C)C)nc3c2)N(C(=O)C(=O)Nc2cncc3cn[nH]c23)C1` [Compound 5, 2-((2R,5S)-2-(2-(2-(dimethylamino)ethyl)benzo[d]thiazol-5-yl)-5-methylpiperidin-1-yl)-2-oxo-N-(1H-pyrazolo[4,3-c]pyridin-7-yl)acetamide]: the concentration for half-maximal inhibition (IC50) in the test with MTAP-deleted cell line is less than 0.1 µM; in test [1] (setting [3]), 0.005 to 0.05 µM; in test [2] (setting [4]) it was less than 0.005 µM. For the same molecule, the IC90 in test [2] (setting [5]) is less than 0.075 µM. Moreover, the “Hap1 MTAP intact/deleted ratio” value in test [2] (SDMA in-cell western) is given as “B (“B” indicates an IC50 ratio greater than or equal to 15 fold but lower than 30 fold)”.

Take `C[C@H]1CC[C@H](c2ccc3sc(C4CN(C)C4)nc3c2)N(C(=O)C(=O)Nc2cnc(N)c3cn[nH]c23)C1` [Compound 107, N-(4-amino-1H-pyrazolo[4,3-c]pyridin-7-yl)-2-((2R,5S)-5-methyl-2-(2-(1-methylazetidin-3-yl)benzo[d]thiazol-5-yl)piperidin-1-yl)-2-oxoacetamide]: the IC50 was less than 0.1 µM with MTAP-deleted cell line, 0.005 to 0.05 µM in test [1] (setting [3]) and less than 0.005 µM in test [2] (setting [4]). Moreover, the IC90 in test [2] (setting [5]) is less than 0.075 µM. Besides, the “Hap1 MTAP intact/deleted ratio” value in test [2] (SDMA in-cell western) is reported as “C (“C” indicates an IC50 ratio of less than 15 fold)”.

In the case of `C[C@H]1CC[C@H](c2cncc(C(F)(F)F)c2)N(C(=O)C(=O)Nc2cnc(N)c3cn[nH]c23)C1` (racemic) [Compound 260, N-(4-Amino-1H-pyrazolo[4,3-c]pyridin-7-yl)-2-oxo-2-[rac-(2R,5S)-5-methyl-2-[5-(trifluoromethyl)-3-pyridyl]-1-piperidyl]acetamide], the results for the IC50 (with MTAP-deleted cell line; in test [1] (setting [6]); in test [2] (setting [7])) were less than 0.1 µM, 0.005 to 0.05 µM and less than 0.005 µM, respectively. Besides, the IC90 in test [2] (setting [8]) is less than 0.075 µM. In addition, the “Hap1 MTAP intact/deleted ratio” value in test [2] (SDMA in-cell western assay) is reported as “B (“B” indicates an IC50 ratio greater than or equal to 15 fold but lower than 30 fold)”.

Turning to `C[C@H]1CC[C@H](c2ccc3sc(C4CCN(C)CC4)nc3c2)N(C(=O)C(=O)Nc2cnc3c(c2)C(=O)NCC3)C1` [Compound 55, 2-((2R,5S)-5-methyl-2-(2-(1-methylpiperidin-4-yl)benzo[d]thiazol-5-yl)piperidin-1-yl)-2-oxo-N-(5-oxo-5,6,7,8-tetrahydro-1,6-naphthyridin-3-yl)acetamide], the IC50 is less than 0.1 µM in the test on MTAP-deleted cell line, 0.005 to 0.05 µM in test [1] (setting [3]) and less than 0.005 µM in test [2] (setting [4]). Besides, the IC90 in test [2] (setting [5]) is less than 0.075 µM. Moreover, the “Hap1 MTAP intact/deleted ratio” value in test [2] (SDMA in-cell western) is listed as “C (“C” indicates an IC50 ratio of less than 15 fold)”.

Turning to `C[C@H]1CC[C@H](c2ccc3sc([C@H](C)N(C)C)nc3c2)N(C(=O)C(=O)Nc2cncc3cn[nH]c23)C1` (single isomer, unassigned) [Compound 153], the values for the IC50 (in the test with MTAP-deleted cell line; in test [1] (setting [3]); in test [2] (setting [4])) were less than 0.1 µM, greater than 0.05 µM and less than 0.005 µM, respectively. Besides, the IC90 in test [2] (setting [5]) is less than 0.075 µM. Besides, the “Hap1 MTAP intact/deleted ratio” value in test [2] (SDMA in-cell western) is “B (“B” indicates an IC50 ratio greater than or equal to 15 fold but lower than 30 fold)”.

Regarding `C[C@H]1CC[C@H](c2ccc(N3CCN(C)CC3)cc2)N(C(=O)C(=O)Nc2cnc(N)c3c2cnn3C)C1` [Compound 191, N-(7-Amino-1-methyl-pyrazolo[3,4-c]pyridin-4-yl)-2-oxo-2-[(2R,5S)-5-methyl-2-[4-(4-methylpiperazin-1-yl)phenyl]-1-piperidyl]acetamide], the IC50 in the test on MTAP-deleted cell line was less than 0.1 µM; in test [1] (setting [3]), greater than 0.05 µM; in test [2] (setting [4]) it was less than 0.005 µM. The IC90 in test [2] (setting [5]) was less than 0.075 µM. The “Hap1 MTAP intact/deleted ratio” value in test [2] (SDMA in-cell western) was “B (“B” indicates an IC50 ratio greater than or equal to 15 fold but lower than 30 fold)”.

On to `C[C@H]1CC[C@H](c2ccc3sc(C[C@H](C)N4CCCC4)nc3c2)N(C(=O)C(=O)Nc2cncc3cn[nH]c23)C1` [Compound 136, 2-((2R,5S)-5-methyl-2-(2-(2-(pyrrolidin-1-yl)propyl)benzo[d]thiazol-5-yl)piperidin-1-yl)-2-oxo-N-(1H-pyrazolo[4,3-c]pyridin-7-yl)acetamide], for which the IC50 in the test with MTAP-deleted cell line is less than 0.1 µM; in test [1] (setting [3]), greater than 0.05 µM; in test [2] (setting [4]), less than 0.005 µM. Moreover, the concentration for an effect of 90% (IC90) in test [2] (setting [5]) is less than 0.075 µM. Further, the “Hap1 MTAP intact/deleted ratio” value in test [2] (SDMA in-cell western) is “A (“A” indicates an IC50 ratio greater than or equal to 30 fold)”.

In the case of `CC1CN(C)CCC1c1nc2cc([C@H]3CC[C@H](C)CN3C(=O)C(=O)Nc3cnc(N)c4cn[nH]c34)ccc2s1` (stereo partly drawn) [Compound 31, N-(4-amino-1H-pyrazolo[4,3-c]pyridin-7-yl)-2-((2R,5S)-2-(2-(1,3-dimethylpiperidin-4-yl)benzo[d]thiazol-5-yl)-5-methylpiperidin-1-yl)-2-oxoacetamide], the results for the IC50 (in the test with MTAP-deleted cell line; in test [1] (setting [3]); in test [2] (setting [4])) were less than 0.1 µM, less than 0.005 µM and less than 0.005 µM, respectively. Also, the IC90 in test [2] (setting [5]) is less than 0.075 µM. The “Hap1 MTAP intact/deleted ratio” value in test [2] (SDMA in-cell western) is “C (“C” indicates an IC50 ratio of less than 15 fold)”.

With `C[C@H]1CC[C@H](c2ccccc2)N(C(=O)C(=O)Nc2cnc(N)c3c2COC3)C1` (racemic) [Compound 188, N-(4-amino-1,3-dihydrofuro[3,4-c]pyridin-7-yl)-2-oxo-2-[rac-(2R,5S)-5-methyl-2-phenyl-1-piperidyl]acetamide], the IC50 was 0.1 to 1 µM with MTAP-deleted cell line, greater than 0.05 µM in test [1] (setting [3]) and 0.005 to 0.05 µM in test [2] (setting [4]). For the same molecule, the “Hap1 MTAP intact/deleted ratio” value in test [2] (SDMA in-cell western) is listed as “A (“A” indicates an IC50 ratio greater than or equal to 30 fold)”.

Consider `C[C@H]1CC[C@H](c2ccc3sc(C4CCN(C)CC4)nc3c2)N(C(=O)C(=O)Nc2cnc3[nH]cnc3c2)C1` [Compound 69, N-(3H-imidazo[4,5-b]pyridin-6-yl)-2-((2R,5S)-5-methyl-2-(2-(1-methylpiperidin-4-yl)benzo[d]thiazol-5-yl)piperidin-1-yl)-2-oxoacetamide], for which the IC50 was less than 0.1 µM in the test with MTAP-deleted cell line, greater than 0.05 µM in test [1] (setting [3]) and 0.005 to 0.05 µM in test [2] (setting [4]). The “Hap1 MTAP intact/deleted ratio” value in test [2] (SDMA in-cell western) was “A (“A” indicates an IC50 ratio greater than or equal to 30 fold)”.

In the case of `C[C@H]1CC[C@H](c2ccccc2)N(C(=O)C(=O)Nc2cnc(N)c3c2CO[C@@H]3C)C1` (relative stereo) [Compound 192, 2-oxo-N-[rel-(3R)-4-amino-3-methyl-1,3-dihydrofuro[3,4-c]pyridin-7-yl]-2-[rac-(2R,5S)-5-methyl-2-phenyl-1-piperidyl]acetamide], the values for the IC50 (in the test on MTAP-deleted cell line; in test [1] (setting [3]); in test [2] (setting [4])) were less than 0.1 µM, greater than 0.05 µM and 0.005 to 0.05 µM, respectively. Also, the IC90 in test [2] (setting [5]) was less than 0.075 µM. Moreover, the “Hap1 MTAP intact/deleted ratio” value in test [2] (SDMA in-cell western) is “A (“A” indicates an IC50 ratio greater than or equal to 30 fold)”.

Take `C[C@H]1CC[C@H]([C@@H]2CCCCO2)N(C(=O)C(=O)Nc2cnc(N)c3cn[nH]c23)C1` [Compound 222]: the IC50 is less than 0.1 µM in the test on MTAP-deleted cell line, greater than 0.05 µM in test [1] (setting [6]) and less than 0.005 µM in test [2] (setting [7]). Moreover, the IC90 in test [2] (setting [8]) is less than 0.075 µM. In addition, the “Hap1 MTAP intact/deleted ratio” value in test [2] (SDMA in-cell western assay) is “A (“A” indicates an IC50 ratio greater than or equal to 30 fold)”.

Regarding `CC(CN1CCCC1)c1nc2cc([C@H]3CC[C@H](C)CN3C(=O)C(=O)Nc3ccn4ccnc4c3)ccc2s1` (stereo partly drawn) [Compound 32, N-(imidazo[1,2-a]pyridin-7-yl)-2-((2R,5S)-5-methyl-2-(2-(1-(pyrrolidin-1-yl)propan-2-yl)benzo[d]thiazol-5-yl)piperidin-1-yl)-2-oxoacetamide], the figures for the IC50 (in the test with MTAP-deleted cell line; in test [1] (setting [3]); in test [2] (setting [4])) were less than 0.1 µM, greater than 0.05 µM and less than 0.005 µM, respectively. Moreover, the “Hap1 MTAP intact/deleted ratio” value in test [2] (SDMA in-cell western) is on record as “A (“A” indicates an IC50 ratio greater than or equal to 30 fold)”.

On to `C[C@H]1CC[C@H](c2ccc3sc(CCCN(C)C)nc3c2)N(C(=O)C(=O)Nc2cnc(N)c3cn[nH]c23)C1` [Compound 278, N-(4-Amino-1H-pyrazolo[4,3-c]pyridin-7-yl)-2-oxo-2-[(2R,5S)-2-[2-[3-(dimethylamino)propyl]-1,3-benzothiazol-5-yl]-5-methyl-1-piperidyl]acetamide], for which the IC50 with MTAP-deleted cell line is less than 0.1 µM; in test [1] (setting [6]), 0.005 to 0.05 µM; in test [2] (setting [7]), less than 0.005 µM. The IC90 in test [2] (setting [8]) is less than 0.075 µM. Besides, the “Hap1 MTAP intact/deleted ratio” value in test [2] (SDMA in-cell western assay) was “C (“C” indicates an IC50 ratio of less than 15 fold)”.

Turning to `C[C@H]1CC[C@H](c2ccsc2)N(C(=O)C(=O)Nc2cnc(N)c3cn[nH]c23)C1` (racemic) [Compound 205, N-(4-Amino-1H-pyrazolo[4,3-c]pyridin-7-yl)-2-oxo-2-[rac-(2R,5S)-5-methyl-2-(3-thienyl)-1-piperidyl]acetamide], the IC50 in the test on MTAP-deleted cell line is less than 0.1 µM; in test [1] (setting [6]), 0.005 to 0.05 µM; in test [2] (setting [7]), less than 0.005 µM. Further, the IC90 in test [2] (setting [8]) is less than 0.075 µM. In addition, in test [2] (SDMA in-cell western assay), the “Hap1 MTAP intact/deleted ratio” value is on record as “A (“A” indicates an IC50 ratio greater than or equal to 30 fold)”.

For `C[C@H]1CC[C@H](c2ccc3sc(C4CCCN(C)C4)nc3c2)N(C(=O)C(=O)Nc2cncc3cn[nH]c23)C1` (mixture of isomers) [Compound 3, 2-((2R,5S)-5-methyl-2-(2-(1-methylpiperidin-3-yl)benzo[d]thiazol-5-yl)piperidin-1-yl)-2-oxo-N-(1H-pyrazolo[4,3-c]pyridin-7-yl)acetamide], the IC50 in the test with MTAP-deleted cell line was less than 0.1 µM; in test [1] (setting [3]), 0.005 to 0.05 µM; in test [2] (setting [4]), less than 0.005 µM. In test [2] (setting [5]), the IC90 is less than 0.075 µM. The “Hap1 MTAP intact/deleted ratio” value in test [2] (SDMA in-cell western) was “C (“C” indicates an IC50 ratio of less than 15 fold)”.
